This is one part of the list.

This is an account of results in the supplement of paper PMC11417369.

For this assay, the system named is PfSIP2 AP2 domain 1 (GST-tagged). In words: gcPBM binding intensity (ln(normalized median fluorescence intensity)); higher = stronger DNA binding. The method in brief:
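Binding intensity values are the highest Masliner-normalised natural-log median intensity among replicate spots of either probe orientation. The binding step lasted 1 h in 1× PBS with 1% milk, 0.2 mg/ml BSA, 0.5% salmon testes DNA and 0.03% Triton X-100, using GST-tagged P. falciparum DNA-binding domains expressed in E. coli on an Agilent 4 × 180k array of primer-extended double-stranded 36-bp intergenic genomic probes plus negative controls. Alexa488 anti-GST antibody and a 488 nm scan detected bound protein.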
As to “TATATATATATATATGCACACATTTATACAATTTTA [CACACA_site2986]”, the “gcPBM binding intensity (ln)” value worked out at 9.71.
In the case of “AGAAAAAAAAAAAAAAAACACACGGTACATCCAAAG [CACACA_site124]”, the “gcPBM binding intensity (ln)” value is 6.79.
For the sequence “ATCAAATTATAATCATGTACAAATAAAAAAAAAAAA [XGTACX_site313]”, the “gcPBM binding intensity (ln)” value amounted to 7.
As for “AAATATCTACAAATATGTACATATTTTTTTTGGCTT [XGTACX_site6301]”, the “gcPBM binding intensity (ln)” value is 6.85.
With “TATTTTGTCATAGAACGTACTTATAAATATTTTTTT [XGTACX_site8424]”, the “gcPBM binding intensity (ln)” value came out at 7.01.
Turning to “ATAGAAGCTGTTGACGAAGAAAAAAAAAAAAAAAAA [CACACA_negctrl_site110]”, the “gcPBM binding intensity (ln)” value came out at 6.86.
On to “TAGATATTTTTGAAAAGTACAAATTTTTAAAAATTA [XGTACX_site4420]”, for which the “gcPBM binding intensity (ln)” value stood at 6.95.
Turning to “TTATATAATGACAAAAAAAAAAAAAAAAAAAAAAAA [CACACA_negctrl_site1467]”, the “gcPBM binding intensity (ln)” value was found to be 7.05.
In the case of “GTATGATTACAAGAAAGTAGTCCACTTTAACAACAA [CACACA_negctrl_site1304]”, the “gcPBM binding intensity (ln)” value stood at 7.07.
With “TAATTTATCCTATAATGTACTTATAAAATATATCAT [XGTACX_site1460]”, the “gcPBM binding intensity (ln)” value turned out to be 6.99.
For the sequence “ATGTACATAAACCGCACACATATAAAAAAATAAATA [CACACA_site5571]”, the “gcPBM binding intensity (ln)” value was 7.47.
As to “AGTCCATTTTATTATTGTACATATTAATTTATATCA [XGTACX_site672]”, the “gcPBM binding intensity (ln)” value came out at 7.5.
Take “ATTCAGAGTATATAAAAATTAATATATACATAATAT [CACACA_negctrl_site1782]”: the “gcPBM binding intensity (ln)” value came out at 6.86.
As for “ATATATATATAAATATGTACATATATACATATATAC [XGTACX_site2374]”, the “gcPBM binding intensity (ln)” value came out at 8.85.
On to “AATATTTTGTTATTTATTTAATCTAATATTACTATC [CACACA_negctrl_site4]”, for which the “gcPBM binding intensity (ln)” value was found to be 6.67.
As to “AAAAAAAAAAAATACACACAAACACAAATTAAATAA [CACACA_site3809]”, the “gcPBM binding intensity (ln)” value is 7.07.
As for “ATTATAGAATATTGAAGTACAAAATTTAAAATAAGT [XGTACX_site1468]”, the figure is 7.38.
As for “TAGGAAAATTACAAAAGTACTTGGCACATAATAATG [XGTACX_site6005]”, the figure is 6.93; as for “TGTTATGAGAACAGCACACAAGCTACATCATATATA [CACACA_site870]”, 6.8.
In the case of “TATATATAAGATTGATGTACGATTTTGGTGTCTTAT [XGTACX_site2611]”, the “gcPBM binding intensity (ln)” value was determined as 6.92.
Take “TATTATAGTATATATTGTACATATATATATTTTTTA [XGTACX_site8831]”: the “gcPBM binding intensity (ln)” value was 7.
“ATAATAATATATAGTACACACAAAAATGGAAGTAAA [CACACA_site3318]”: the “gcPBM binding intensity (ln)” value came out at 7.25.
“TAAAAATATTATAATGCATGCAAAATATTGTTATAA [TGCATGCA_site244]”: the “gcPBM binding intensity (ln)” value came out at 6.96.
Regarding “ATAGTTTTTCCAATTCAAAAAAAAAAAAAAAAAAAA [CACACA_negctrl_site969]”, the “gcPBM binding intensity (ln)” value came out at 6.91.
Take “AAAGTATAAATAAATACACACATATTTATTTATATA [CACACA_site7375]”: the “gcPBM binding intensity (ln)” value stood at 6.91.
As for “AACATATGATTAAACTGTACAAGAAAAATATAACAT [XGTACX_site4477]”, the figure is 7.28; as for “GAGAGGATCATCAATTCACACACATAAAAATGAAGT [CACACA_site9010]”, 6.81; as for “GTAATACCCAAACACACACACATACCCATATATATA [CACACA_site5510]”, 7.52.
As for “AGAAAGTAAAGCTGTTGTACTATTATATATATTTTA [XGTACX_site8090]”, the “gcPBM binding intensity (ln)” value came to 6.82.
For “TTTCTTTTTAAATAATAATGTATAATAAAAAGTTCA [TGCATGCA_negctrl_site195]” the value was 6.97; for “TTTGTTTGATATATGTGTACATATATATATTATGCT [XGTACX_site3522]”, 7.22; for “TATAATATGTATATCTGTACATATTTTAAATCTAAT [XGTACX_site2426]”, 6.86.
AAGTACAATTCATGTATGCACTTTATTATATTTTAT: the “gcPBM binding intensity (ln)” value turned out to be 8.14.
Turning to “AAGATAAAATAATAAAGTACACATATAAATTGAAAA [XGTACX_site2113]”, the “gcPBM binding intensity (ln)” value came out at 7.
Regarding “TAATTTTTTAAATTTAAACACACATTTTGTATATGT [CACACA_site8479]”, the “gcPBM binding intensity (ln)” value came to 6.94.
Turning to “TGATACGTATTTATTTCACACACGTTAAAAAAATAA [CACACA_site3914]”, the “gcPBM binding intensity (ln)” value was 7.01.
Turning to “TATATATATATATATTGTACGAACCTTTTTTTTTTT [XGTACX_site4169]”, the “gcPBM binding intensity (ln)” value was 9.26.
As to “CTAACACTAATTTTTTGTACACAATATGTAAATAAA [XGTACX_site6424]”, the “gcPBM binding intensity (ln)” value worked out at 7.28.
Turning to “ATTTTTACATAGGAAGCATGCATATTTTAAAAATAA [TGCATGCA_site1046]”, the “gcPBM binding intensity (ln)” value was 6.81.
As for “TTATTTCTGAATATTTTTTTTTTTTCTTCTTTTTTA [CACACA_negctrl_site815]”, the “gcPBM binding intensity (ln)” value is 6.5.
For “CATGTGTTCTATATTTATGTCTAACTTTTTAATTAA [CACACA_negctrl_site904]” the value was 6.97; for “TAATGTAATACATATTGTACACATACATATATATTT [XGTACX_site7531]”, 6.99; for “ATATATAATCATCACACATGCAGCCCTGATGAAAAA [TGCATGCA_site687]”, 6.93.
“GGGTATACCAATATAACACACATATATCTATAATAT [CACACA_site6348]”: the “gcPBM binding intensity (ln)” value turned out to be 6.9.
Consider “TATAAATTTTTATTTACATGCAGTTATTATTTCCAT [TGCATGCA_site41]”, for which the “gcPBM binding intensity (ln)” value turned out to be 6.8.
Take TTTTTGTTACCTATTGTGCACTTCATATAAATTAAA: the “gcPBM binding intensity (ln)” value was 10.8.
Regarding “TATTAAAAGGTTAAAGCATGCATACATATATATGTT [TGCATGCA_site865]”, the “gcPBM binding intensity (ln)” value is 6.89.
Regarding “AATAATAAATAAAAATGTACACATACATTTCTATCC [XGTACX_site7057]”, the “gcPBM binding intensity (ln)” value stood at 6.98.
On to “ATATATATATATATATGTACATATTTATATTGTAAA [XGTACX_site8878]”, for which the “gcPBM binding intensity (ln)” value was determined as 9.45.
On to “GTAATTTTATATGGTTGTACATATATATATATATAT [XGTACX_site6659]”, for which the “gcPBM binding intensity (ln)” value came out at 9.68.
On to “ATATATATATATATATATATTTATATGTGAAAACCC [CACACA_negctrl_site845]”, for which the “gcPBM binding intensity (ln)” value worked out at 9.3.
For the sequence TTATACCTGATTTAGGTGCTATAAATTTGTGTTTTT, the “gcPBM binding intensity (ln)” value is 7.06.
For “ATATATATATATATGTGTACTTATATATTTAAAAAA [XGTACX_site1761]”, the “gcPBM binding intensity (ln)” value is 8.89.
Regarding “CGCATAAAGACAAGAACACACATATATATTGTAGTA [CACACA_site5938]”, the “gcPBM binding intensity (ln)” value is 7.
As for “CAACAACAAAAAAAAAAATAATAATAATAAAAAATA [TGCATGCA_negctrl_site271]”, the “gcPBM binding intensity (ln)” value turned out to be 6.71.
On to “TATTTTTTAAAAAAATGTCATAAAATTTCTTTTTTC [XGTACX_negctrl_site271]”, for which the “gcPBM binding intensity (ln)” value worked out at 6.64.
